Experimental data taken from patent publication US8975247B2, “Methods and compositions of treating a flaviviridae family viral infection” (priority 2009, dated 2015).
Where two headings read alike, the source gives them in different places.

Columns and labels:
[1] = tested on: HCV genotype 2a infectious clone; assay: HCV genotype 2a infectious clone assay (Renilla luciferase); assay type: cell-based; settings: for activity at 5 µM: Hepatitis C virus, read-out: 2a % activity @ 5 μM, % replication activity of control remaining at 5 μM test compound; for 2a % activity @ 5 μM: % replication activity of control remaining at 5 μM test compound
[2] = tested on: Huh7.5 cells; assay type: cell-based

Structure (SMILES)	activity at 5 µM [1] [%]	2a Cell Viability @ 5 μM ([2]; human, 3 days, 5 μM)	2a Cell Viability @ 10 μM ([2]; human, 3 days, 10 μM)	2a % activity @ 5 μM [1] [%]	2a Cell Viability @ 5 μM ([2]; % cell survival at 5 μM) [%]	2a Cell Viability @ 10 μM ([2]; % cell survival at 10 μM) [%]	2a Cell Viability @ 3 uM ([2]; human, 3 days, 3 uM) [%]	2a Cell Viability @ 6 uM ([2]; human, 3 days, 6 uM) [%]
c1ccc2c(c1)nc(CN1CCCC1)n2CC1CCNCC1 [EBP193]	77	>100, >100%	>100, >100%					
CC(=O)N1CCC(Cn2c(CN3CCCC3)nc3ccccc32)CC1 [EBP194]	80	>100, >100%	>100, >100%					
Cc1cc2nc(CN3CCCC3)n(CC3CCN(S(C)(=O)=O)CC3)c2cc1C [EBP195]	71	>100, >100%	>100, >100%					
c1ccc2c(c1)nc(CN1CCCC1)n2CC1CCCNC1 (stereo not drawn) [EBP196]	63	> 100%	98%					
Cc1ccc(Cn2c(CN3CCCC3)nc3ccccc32)cc1 [EBP197]	60	96%	95%					
Clc1ccc(Cn2cnc3cc(Cl)ccc32)cc1 [EBP207]	63	> 100%	88%					
Fc1cc2ncn(Cc3ccc(Cl)cc3)c2cc1F [EBP208]		>100, >100%	>100, >100%	80				
COc1ccc2c(c1)ncn2Cc1ccc(Cl)cc1 [EBP209]	64	> 100%	85%					
COc1cc2ncn(Cc3ccc(Cl)cc3)c2cc1OC [EBP210]	65	> 100%	90%					
Clc1ccc(Cn2cnc3cc(Cl)c(Cl)cc32)cc1 [EBP211]	69	93%	91%					
Cc1cc2nc(CN3CCCC3=O)n(Cc3ccc(Cl)cc3)c2cc1C [EBP216]	77	97%	95%					
Clc1ccc(Cn2cnc3cc4c(cc32)OCCO4)cc1 [EBP217]	76	> 100%	94%					
Cc1cc2ncn(Cc3ccc(Cl)cc3)c2cc1Cl [EBP218]	65	> 100%	88%					
Clc1ccc(Cn2c(-c3cncs3)nc3ccccc32)cc1 [EBP225]	71	>100, >100%	>100, >100%					
O=C(O)c1ccc2c(c1)ncn2Cc1ccc(Cl)cc1 [EBP226]	78	>100, >100%	>100, >100%					
O=C(O)c1ccc2ncn(Cc3ccc(Cl)cc3)c2c1 [EBP227]	81	>100, >100%	>100, >100%					
Cc1cc2nc(CN3CCCC3C)n(Cc3ccc(Cl)cc3)c2cc1C (stereo not drawn) [EBP231]	49	> 100%	89%					
Cc1cc2c(ncn2Cc2ccc(Cl)cc2)c(N)c1C [EBP238]	69	100, 100%	100, 100%					
Cc1cc2c(ncn2Cc2ccc(Cl)cc2)c(NC(=O)C(C)C)c1C [EBP240]	86	> 100%	99%					

Structure (SMILES)	activity at 5 µM [1] [%]	2a Cell Viability @ 5 μM ([2]; human, 3 days, 5 μM)	2a Cell Viability @ 10 μM ([2]; human, 3 days, 10 μM)	2a % activity @ 5 μM [1] [%]	2a Cell Viability @ 5 μM ([2]; % cell survival at 5 μM) [%]	2a Cell Viability @ 10 μM ([2]; % cell survival at 10 μM) [%]	2a Cell Viability @ 3 uM ([2]; human, 3 days, 3 uM) [%]	2a Cell Viability @ 6 uM ([2]; human, 3 days, 6 uM) [%]
Cc1cc2c(ncn2Cc2ccc(Cl)cc2)c(NS(C)(=O)=O)c1C [EBP243]	90	>100, >100%	>100, >100%					
CCCCNC(=O)Nc1c(C)c(C)cc2c1ncn2Cc1ccc(Cl)cc1 [EBP245]	87	96%	93%					
CCN(CC)c1c(C)c(C)cc2c1ncn2Cc1ccc(Cl)cc1 [EBP246]	77	> 100%	98%					
Cc1cc2ncn(Cc3ccc(Cl)cc3)c2cc1C [EBP268]	66	86%	74%					
Fc1cc2ncn(Cc3ccc(Cl)cc3)c2cc1F [EBP269]	76	97%	85%					
OC[C@@H]1CCCN1Cc1nc2ccccc2n1Cc1ccc(Cl)cc1 [EBP270]		> 100%	98%	89				
Cc1cc2nc(CC3CCCC3)n(Cc3ccc(Cl)cc3)c2cc1C [EBP271]	61				100	90		
Cc1cc2nc(CN3CCC[C@@H]3C)n(Cc3ccc(Cl)cc3)c2cc1C [EBP272]	56	98%	69%					
Cc1cc2c(ncn2Cc2ccc(Cl)cc2)c(NCc2ccccn2)c1C [EBP299]	57	85%	81%					
COc1ccc(Cn2cnc3c([N+](=O)[O-])c(C)c(C)cc32)cc1 [EBP303]	74	95%	74%					
COc1ccc(Cn2cnc3c(NS(C)(=O)=O)c(C)c(C)cc32)cc1 [EBP304]	53	> 100%	93%					
CCNc1c(C)c(C)cc2c1ncn2Cc1ccc(OC)cc1 [EBP306]	71						> 100	93
CCN(CC)c1c(C)c(C)cc2c1ncn2Cc1ccc(OC)cc1 [EBP307]	48	97%	71%					
COc1ccc(Cn2cnc3c(NCC(C)C)c(C)c(C)cc32)cc1 [EBP308]	45	93%	82%					
Cc1ccc2c(c1)nc(CN1CCCCC1)n2Cc1ccc(Cl)cc1 [EBP314]	67	97%	84%					
Cc1ccc2c(c1)nc(CN1CCC[C@H]1C)n2Cc1ccc(Cl)cc1 [EBP316]	90	97%	93%					
Cc1cc2nc(/C=C/C(C)C)n(Cc3ccc(Cl)cc3)c2cc1C [EBP322]	74	> 100%	95%					
Cc1cc2nc(COCC3CC3)n(Cc3ccc(Cl)cc3)c2cc1C [EBP323]	79	> 100%	99%					
COc1ccc(Cn2cnc3c(N)c(C)c(C)cc32)cc1 [EBP346]	68	103%	99%					

Structure (SMILES)	activity at 5 µM [1] [%]	2a Cell Viability @ 5 μM ([2]; human, 3 days, 5 μM)	2a Cell Viability @ 10 μM ([2]; human, 3 days, 10 μM)	2a % activity @ 5 μM [1] [%]	2a Cell Viability @ 5 μM ([2]; % cell survival at 5 μM) [%]	2a Cell Viability @ 10 μM ([2]; % cell survival at 10 μM) [%]	2a Cell Viability @ 3 uM ([2]; human, 3 days, 3 uM) [%]	2a Cell Viability @ 6 uM ([2]; human, 3 days, 6 uM) [%]
COc1cc(CCc2nc3cc(C)c(C)cc3n2Cc2ccc(Cl)cc2)cc(OC)c1OC [EBP370]	62	93%	78%					
[O-][N+]1(Cc2nc3ccccc3n2Cc2ccc(Cl)cc2)CCCC1 [EBP405]	> 10	100%	96%					
Clc1ccc(Cn2c(CN3CC=CC3)nc3ccccc32)cc1 [EBP409]	80	100%	98%					
Cc1cc2nc(CN3C[C@@H](O)[C@@H](O)C3)n(Cc3ccc(Cl)cc3)c2cc1C [EBP411]	68	93%	99%					
O[C@@H]1CN(Cc2nc3ccccc3n2Cc2ccc(Cl)cc2)C[C@@H]1O [EBP412]	81	100, 100%	100, 100%					
Cc1cc2nc(CCc3cccnc3)n(Cc3ccc(Cl)cc3)c2cc1C [EBP416]	53	100%	91%					
Cc1cc2nc(C=C3CCNCC3)n(Cc3ccc(Cl)cc3)c2cc1C [EBP422]	78	89%	80%					
Cc1cc2nc(/C=C3\CCCNC3)n(Cc3ccc(Cl)cc3)c2cc1C [EBP423]	59	98%	71%					
Cc1ccc2nc(CN3CCC[C@H]3C)n(Cc3ccc(Cl)cc3)c2c1 [EBP427]	86	100%	91%					
Cc1ccc2nc(CN3CCCCC3)n(Cc3ccc(Cl)cc3)c2c1 [EBP428]	65	100, 100%	100, 100%					
Cc1cc2c(ncn2Cc2ccc(Cl)cc2)c(NS(=O)(=O)C2CC2)c1C [EBP430]	89	98%	92%					
Cc1cc2c(ncn2Cc2ccc(Cl)cc2)c(NS(=O)(=O)C2CCCCC2)c1C [EBP431]	79	100%	92%					
Cc1cc2c(ncn2Cc2ccc(Cl)cc2)c(NCC2CCCCC2)c1C [EBP432]	90	93%	94%					
Cc1cc2c(ncn2Cc2ccc(Cl)cc2)c(NC2CCCCC2)c1C [EBP435]	86	100%	93%					
Cc1cc2nc(C=C3CCCCC3)n(Cc3ccc(Cl)cc3)c2cc1C [EBP466]	80	100, 100%	100, 100%					
Cc1cc2nc(/C=C/c3cccs3)n(Cc3ccc(Cl)cc3)c2cc1C [EBP475]	38	100%	95%					
Cc1cc2nc(/C=C/c3ccsc3)n(Cc3ccc(Cl)cc3)c2cc1C [EBP476]	60	95%	76%					
CC(=O)N1CCCC1CCc1nc2cc(C)c(C)cc2n1Cc1ccc(Cl)cc1 (stereo not drawn) [EBP479]	82	91, 91%	91, 91%					
